Here are results for one molecule from the supplement of paper PMC8728848.

Some of the results follow.

What all share (assay): glycan array binding signal (z-score within array); higher = stronger binding
Holding throughout (conditions): glycan notation: IUPAC condensed, linker removed; mutation: F63H

The target in one assay is Glc(b1-4)Glc. In a few lines:
(§1)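 The binding signal is a Z-score computed within each array and averaged over linkers. Arrays of the same protein sequence at different concentrations or buffers were also averaged together. Data originate from 3228 arrays in the Consortium for Functional Glycomics database, kept only where the protein sequence was available.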

The target of another assay is Glc(b1-6)Glc. In a few lines:
as §1

The next assay has as its target GlcA(b1-3)Gal. The procedure, abridged: as §1
The target of a further assay is GlcA(b1-3)GlcNAc. The procedure, abridged: as §1
For a further assay, the target named is GlcA(b1-6)Gal. The procedure, abridged: as §1
Assay [1] concerns the target GlcA3S(b1-3)Gal(b1-4)GlcNAc(b1-2)Man. In a few lines:
as §1

The target in assay [2] is GlcA3S(b1-3)Gal(b1-4)GlcNAc(b1-3)Gal(b1-4)Glc. In a few lines: as §1
Assay [3] addresses GlcNAc(a1-3)Gal(b1-4)GlcNAc. The procedure, abridged: as §1
The target in assay [4] is GlcNAc(a1-4)Gal(b1-3)GlcNAc. The procedure, abridged:
as §1

Assay [5] addresses GlcNAc(a1-4)Gal(b1-4)GalNAc. The procedure, abridged:
as §1

Assay [6] concerns the target GlcNAc(a1-4)Gal(b1-4)GlcNAc. In a few lines:
as §1

Assay [7] has as its target GlcNAc(a1-4)Gal(b1-4)GlcNAc(b1-3)Gal(b1-4)Glc. In a few lines:
as §1

The target of assay [8] is GlcNAc(a1-4)Gal(b1-4)GlcNAc(b1-3)Gal(b1-4)GlcNAc. The procedure, abridged:
as §1

The target in assay [9] is GlcNAc(a1-4)Gal(b1-4)GlcNAc(b1-3)Gal(b1-4)GlcNAc(b1-3)Gal(b1-4)GlcNAc. The procedure, abridged:
as §1

Assay [10] concerns the target GlcNAc(a1-4)Gal(b1-4)GlcNAc(b1-3)Gal(b1-4)[Fuc(a1-3)]GlcNAc(b1-3)Gal(b1-4)[Fuc(a1-3)]GlcNAc. The procedure, abridged: as §1
Assay [11] concerns the target GlcNAc(a1-6)Gal(b1-4)GlcNAc. In a few lines:
as §1

Assay [12] concerns the target GlcNAc(b1-2)Gal(b1-3)GalNAc. In a few lines: as §1
In assay [13] the target is GlcNAc(b1-2)Man(a1-3)[GlcNAc(b1-2)Man(a1-6)]Man(b1-4)GlcNAc(b1-4)GlcNAc. The procedure, abridged:
as §1

In assay [14] the target is GlcNAc(b1-2)Man(a1-3)[GlcNAc(b1-2)Man(a1-6)]Man(b1-4)GlcNAc(b1-4)[Fuc(a1-6)]GlcNAc. The procedure, abridged:
as §1

For assay [15], the target named is GlcNAc(b1-2)Man(a1-3)[GlcNAc(b1-4)][GlcNAc(b1-2)Man(a1-6)]Man(b1-4)GlcNAc(b1-4)GlcNAc. In a few lines: as §1
In assay [16] the target is GlcNAc(b1-2)Man(a1-3)[GlcNAc(b1-4)][GlcNAc(b1-2)Man(a1-6)]Man(b1-4)GlcNAc(b1-4)[Fuc(a1-6)]GlcNAc. The procedure, abridged: as §1
Assay [17] deals with GlcNAc(b1-2)[GlcNAc(b1-4)]Man(a1-3)[GlcNAc(b1-2)Man(a1-6)]Man(b1-4)GlcNAc(b1-4)GlcNAc. In a few lines:
as §1

B1: AAL (Agrocybe aegerita), Q6WY08 (protein)
chain: MQGVNIYNISAGTSVDLAAPVTTGDIVTFFSSALNLNAGAGNPNNTTLNLFAENGAYLLHIAHRLQENVIIFNSRQPDGPWLVEQRVSDVANQFAGIDGKAMVTVFDHGDKYQVVINEKTVIQYTKQISGLTLSLSYNATEETSIFSTVVEAVTYTGLALEHHHHHH
Take B1: the “glycan array binding signal (z-score)” value in the assay with Glc(b1-4)Glc is -0.554; with Glc(b1-6)Glc, -0.408; in the assay with GlcA(b1-3)Gal it was -0.33; with GlcA(b1-3)GlcNAc it was -0.101; with GlcA(b1-6)Gal, 0.43; in [1], 14.9. Further, the “glycan array binding signal (z-score)” value in assay [2] is 12.7; in [3], -0.255; in assay [4], -0.008; in assay [5] it was -0.141; in [6], -0.262; in assay [7], -0.403. The “glycan array binding signal (z-score)” value was -0.067 in [8]; -0.106 in [9]; 0.227 in assay [10]; -0.099 in [11]; -0.256 in assay [12]; 0.012 in [13]. For the same molecule, the “glycan array binding signal (z-score)” value in assay [14] is -0.272; in assay [15], -0.176; in assay [16] it was -0.109; in assay [17], 0.192.
